Assay results reported in PubChem BioAssay AID2676 (National Center for Advancing Translational Sciences (NCATS), 2010).
Screen size: about 370,000 compounds; about 1,100 (0.3%) were called active. This list was built around the results that the source calls inconclusive (neither active nor inactive); the mix of calls is not that of the screen. The call rests on the fitted dose curve; in most records, active means well fitted activation curve with a large enough effect; inconclusive means small, poorly fitted or top-dose-only effect; inactive means flat fitted curve, though single readings scatter. Where the call is inconclusive, the potency comes from a doubtful curve fit.

The compounds below were run against Relaxin receptor 1 (Homo sapiens) (UniProt Q9HBX9) (assay: qHTS Assay for Agonists of the Relaxin Receptor RXFP1). Conditions: HEK293T-RXFP1 cAMP TR-FRET, 30 min; series mostly up to 57.5 µM; activation: at the top concentration.
Chain of UniProt Q9HBX9 (Q9HBX9 whole entry, looked up): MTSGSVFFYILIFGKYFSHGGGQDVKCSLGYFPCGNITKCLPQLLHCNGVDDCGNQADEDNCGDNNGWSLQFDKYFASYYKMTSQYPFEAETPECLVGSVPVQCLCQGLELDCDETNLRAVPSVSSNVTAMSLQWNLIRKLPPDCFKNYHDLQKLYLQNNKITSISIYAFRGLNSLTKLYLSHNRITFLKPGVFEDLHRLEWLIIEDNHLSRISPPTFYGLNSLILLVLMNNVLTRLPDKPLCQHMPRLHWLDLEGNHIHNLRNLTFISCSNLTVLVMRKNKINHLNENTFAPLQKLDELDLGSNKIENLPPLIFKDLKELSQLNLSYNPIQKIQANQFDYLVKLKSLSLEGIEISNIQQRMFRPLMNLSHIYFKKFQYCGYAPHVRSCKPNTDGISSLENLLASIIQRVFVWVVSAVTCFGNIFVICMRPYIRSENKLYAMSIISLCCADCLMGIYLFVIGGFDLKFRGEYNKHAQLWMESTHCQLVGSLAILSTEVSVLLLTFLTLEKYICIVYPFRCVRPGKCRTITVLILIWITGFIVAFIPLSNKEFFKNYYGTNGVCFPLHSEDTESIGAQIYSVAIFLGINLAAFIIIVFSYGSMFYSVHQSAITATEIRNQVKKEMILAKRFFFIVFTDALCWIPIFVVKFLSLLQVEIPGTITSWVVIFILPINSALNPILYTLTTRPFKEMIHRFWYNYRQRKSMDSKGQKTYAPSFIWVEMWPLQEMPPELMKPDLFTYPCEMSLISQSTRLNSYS
How it was run: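 cAMP rise read by TR-FRET after 30 min, 37C compound exposure (up to 58 uM) in RXFP1-transfected HEK293 cells with Ro 20174 present. EC50 from Hill-equation fits, with 29 nM porcine relaxin as 100% and buffer as basal.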
Further: nearly all actives have a fitted effect of over 60% in size.
On the % scale 0 is the no-effect control and ±100 the full control effect; potency means the concentration at half of the fitted maximal effect; tags describe the fitted curve by direction and shape.

Row | Compound | Potency | activation
1 | COc1ccc(OC)c(CNC(=O)CCCn2c(=O)c3cccn3c3cccnc32)c1 | inconclusive: 31.6 µM [activator, single point] | 
2 | COc1ccc(N(CC(=O)Nc2cc(OC)cc(OC)c2)S(=O)(=O)c2c(C)noc2C)cc1 |  | inactive: 1.06%
3 | O=C(Nc1ccc(Cl)cn1)C1C(c2ccccc2)C1(Cl)Cl (stereo not given) |  | inactive: 0.69%
4 | Cc1cc(C)cc(Nc2cc(C(=O)NC3CCCCC3)c3ccccc3n2)c1 | inconclusive: 10 µM [activator, partial curve] | 
5 | Cc1ccc(S(=O)(=O)N2CCOCC2)cc1NC(=O)COC(=O)c1cccnc1Cl | inconclusive: 25.1 µM [activator, partial curve] | 
6 | CCc1c(C)sc(NC(=S)Nc2cccnc2)c1C(=O)OC | inconclusive: 25.1 µM [activator, single point] | 
7 | CCc1ccc(C(=O)c2cn(CC(=O)NCCc3ccccc3)c3nc(C)ccc3c2=O)cc1 | inconclusive: 35.5 µM [activator, single point] | 
8 | COc1ccc(C(=O)Nc2nc(C)c3cc4c(cc3n2)OCO4)cc1 | inconclusive: 39.8 µM [activator, single point] | 
9 | Cc1ccc(C2=Nc3ccccc3N=C(c3ccc(F)cc3)C2)c(O)c1 | inconclusive: 22.4 µM [activator, single point] | 
10 | CCn1nc(C)c2c(-c3ccccc3)cc(=O)n(C(C)C(=O)Nc3ccc(OC)c(OC)c3)c21 (stereo not given) |  | inactive: 3.43%
11 | O=C(CCc1cn(Cc2ccc(F)cc2)c2ccccc12)NC1CCCCC1 | inconclusive: 39.8 µM [activator, single point] | 
12 | COc1ccc(C2/C(=C(\O)c3ccc4c(c3)CC(C)O4)C(=O)C(=O)N2Cc2cccnc2)c(OC)c1 (stereo not given) | inconclusive: 25.1 µM [activator, partial curve] | 
13 | CC(C)c1cnc2c(c1SCC(=O)Nc1cccc([N+](=O)[O-])c1)c(=O)n(C)c(=O)n2C |  | inactive: 5.66%
14 | CCc1ccccc1NC(=O)C(=O)NCCc1sc(-c2cccc(C)c2)nc1C | inconclusive: 39.8 µM [activator, single point] | 
15 | Cc1cccc(NC(=O)c2cccc(C(=O)Nc3cccc(C)c3)c2)c1 | inconclusive: 35.5 µM [activator, single point] | 
16 | COc1cccc(NC(=O)c2sc3nc(N4CCOCC4)c4c(c3c2N)CCCC4)c1 | inconclusive: 25.1 µM [activator, partial curve] | 
17 | N#Cc1c(-c2cccs2)nc(SCc2ccc(Cl)cc2)[nH]c1=O | active: 15.8 µM | 
18 | O=S(=O)(c1cccc(Cl)c1)c1nnn2c1nc(NC1CCCC1)c1sccc12 | inconclusive: 39.8 µM [activator, single point] | 
19 | COc1cccc(NC(=O)CCc2nnc3n(CC(C)C)c(=O)c4ccccc4n23)c1 |  | inactive: 13.3%
20 | COc1ccc(CCNC(=S)NC(=O)c2cc(OC)c(OC)c(OC)c2)cc1OC | inconclusive: 35.5 µM [activator, single point] | 
21 | O=C(Nc1cccc(C(F)(F)F)c1)c1cccnc1NCCc1ccccc1 | inconclusive: 35.5 µM [activator, single point] | 
22 | O=C(Nc1cc(S(=O)(=O)N2CCOCC2)ccc1N1CCOCC1)c1cc(=O)[nH]c2ccccc12 | inconclusive: 20 µM [activator, partial curve] | 

Row | Compound | Potency | activation
23 | CN(C)S(=O)(=O)c1cc(C(=O)OCCn2cnc3c2c(=O)n(C)c(=O)n3C)ccc1Cl | inconclusive: 28.2 µM [activator, partial curve] | 
24 | CCOc1ccc(C2C3=C(CCCC3=O)Nc3ccc4ncccc4c32)cc1 (stereo not given) |  | inactive: -1.65%
25 | O=C(CCCn1c(=O)c2cccn2c2cccnc21)Nc1ccccc1Br | inconclusive: 39.8 µM [activator, single point] | 
26 | Cc1ccc2[nH]c3c(NCc4ccco4)ncnc3c2c1 |  | inactive: 0.524%
27 | Cc1cccn2c(=O)c3cc(C(=O)NCC4CCCO4)c(=N)n(C4CCCCC4)c3nc12 (stereo not given) | inconclusive: 25.1 µM [activator, partial curve] | 
28 | CNc1oc(/C=C/c2cc(OC)c(OC)c(OC)c2)nc1C#N | inconclusive: 28.2 µM [activator, single point] | 
29 | Cc1ccc(-n2c(=O)c3ccc(C(=O)NCc4ccccc4Cl)cc3n(CC(N)=O)c2=O)cc1 | inconclusive: 35.5 µM [activator, single point] | 
30 | COc1cc2oc3ccccc3c2cc1N(CC(=O)N(C)C)S(=O)(=O)c1ccc(C)cc1 |  | inactive: -1.4%
31 | Nc1ncnc2c1ncn2C1OC(CO)C(O)C1O (stereo not given) | active: 14.1 µM | 
32 | COc1ccc(-n2nc(C(=O)NCC(=O)NCCCN3CCOCC3)c3ccccc3c2=O)cc1OC | active: 14.1 µM | 
33 | CC(=O)c1cn(CC(=O)Nc2c(C)cccc2C)c2ccccc12 |  | inactive: 0.8%
34 | O=C(NCc1ccco1)c1ccc2c(=O)n(-c3ccccc3)c(=S)[nH]c2c1 | inconclusive: 39.8 µM [activator, single point] | 
35 | CCS(=O)(=O)c1nc(S(=O)(=O)c2ccc(C)cc2)c(N2CCN(CCO)CC2)s1 | inconclusive: 25.1 µM [activator, partial curve] | 
36 | CNC(=S)N(Cc1cc2cc(C)ccc2n2nnnc12)CC(C)(C)CN(C)C | inconclusive: 39.8 µM [activator, single point] | 
37 | COc1ccccc1N1CCN(Cc2cc(=O)c(OCC(=O)NC(C)C)co2)CC1 |  | inactive: 1.66%
38 | COC(CNC(=O)c1ccc2nc3ccccc3c(=O)n2c1)OC | inconclusive: 20 µM [activator, partial curve] | 
39 | Cc1cccc(NC(=O)c2cnc3sccn3c2=O)c1C | inconclusive: 39.8 µM [activator, single point] | 
40 | CCOC(=O)Cn1cnc2c(C#N)c3n(c2c1=O)CCCCC3 | inconclusive: 15.8 µM [activator, partial curve] | 
41 | CCN(CC)c1ccc2cc(-c3nc(-c4ccc(Cl)cc4Cl)cs3)c(=O)oc2c1 | inconclusive: 35.5 µM [activator, single point] | 
42 | Cc1ccc(C)c(S(=O)(=O)N2CCN(c3ncccn3)CC2)c1 |  | inactive: 0.996%
43 | CC1CCCN(c2nc3c(S(=O)(=O)c4ccc(C(C)C)cc4)nnn3c3ccsc23)C1 (stereo not given) | inconclusive: 39.8 µM [activator, single point] | 
44 | COc1cc(/C=C2\C(=O)ON=C2c2ccccc2)cc(Br)c1O |  | inactive: 0.648%

Row | Compound | Potency | activation
45 | COc1cccc(NC(=O)CSc2ncc3c(n2)-c2ccc(Cl)cc2N(C)S3(=O)=O)c1 | inconclusive: 39.8 µM [activator, single point] | 
46 | Cc1c(Cl)cccc1NC(=O)N1CCOc2ccccc21 | inconclusive: 25.1 µM [activator, partial curve] | 
47 | N#Cc1c(N2CCCCC2)nc(N)c2c(N)nc3c(c12)CC(CCl)O3 (stereo not given) | inconclusive: 35.5 µM [activator, single point] | 
48 | Cc1ccc(-c2nnn3c2nc(NCCc2ccc(S(N)(=O)=O)cc2)c2ccccc23)cc1 | inconclusive: 14.1 µM [activator, partial curve] | 
49 | O=C1COc2ccc(-c3cc(-c4ccccc4)c4c(n3)-c3ccccc3OC4)cc2N1 | inconclusive: 25.1 µM [activator, single point] | 
50 | Cc1nc(N2CCOCC2)c2c(C)c(C(=O)Nc3ccc(F)cc3Cl)sc2n1 | inconclusive: 35.5 µM [activator, single point] | 
51 | CC1CCCCN1CCNC(=O)CCc1nnc2n(Cc3ccccc3)c(=O)c3ccccc3n12 (stereo not given) | inconclusive: 31.6 µM [activator, partial curve] | 
52 | Cc1cc(-c2ccccc2)nc(SCc2ccc(C(=O)O)o2)n1 |  | inactive: -1.02%
53 | CC1Cc2ccccc2N1C(=O)COc1nc2ccccc2nc1N1CCOCC1 (stereo not given) |  | inactive: 3.16%
54 | CCN(CC)Cc1c(O)c(Cl)cc2c(C)cc(=O)oc12 | inconclusive: 22.4 µM [activator, partial curve] | 
55 | COc1ccc(C(=O)OCC(=O)c2c[nH]c3ccccc23)cc1OC | inconclusive: 39.8 µM [activator, single point] | 
56 | CC(=O)Nc1ccc(NC(=O)CSc2ccc3nnc(-c4cccnc4)n3n2)cc1 | active: 8.91 µM | 
57 | COc1cc(C(=O)OCC(=O)c2c(N)n(C)c(=O)n(C)c2=O)ccc1OCCC(C)C | inconclusive: 28.2 µM [activator, single point] | 
58 | CCc1c(C)sc(NC(=S)Nc2nc(C)cc(C)n2)c1C(=O)OC | inconclusive: 35.5 µM [activator, single point] | 
59 | CCOC(=O)Cn1c(=NC(=O)CC)sc2c(C)cc(C)cc21 | inconclusive: 39.8 µM [activator, single point] | 
60 | CCC1CCCCN1C(=O)COc1c(Br)cc(Br)c2cccnc12 (stereo not given) | inconclusive: 28.2 µM [activator, partial curve] | 
61 | CCc1ccc(C(=O)c2cn(CC(=O)Nc3ccc(OC)cc3)c3cc4c(cc3c2=O)OCO4)cc1 | inconclusive: 35.5 µM [activator, single point] | 
62 | Cc1nc(SCC(=O)Nc2ccc(F)cc2)c2oc3ccccc3c2n1 | inconclusive: 35.5 µM [activator, single point] | 
63 | CCc1ccc(NC(=O)Cn2c(=O)n(-c3ccc(OC)cc3)c(=O)c3ccc(C(=O)NCc4ccc(C)cc4)cc32)cc1 | inconclusive: 28.2 µM [activator, single point] | 
64 | CCc1ccc(-n2nc(C)c3c(C)cc(=O)n(CC(=O)Nc4ccc(F)cc4C)c32)cc1 | inconclusive: 31.6 µM [activator, single point] | 
65 | CCN(CC)CCCNc1nc(SC)nc2sc3c(c12)CCN(C)C3 | inconclusive: 15.8 µM [activator, partial curve] | 
